From a collection of fitness landscapes (doi:10.1126/science.1257360) come the findings set out here.

First the molecules themselves.
B1: PhoQ; a variant is named by its letters at X, in order, P23837 (parent)
chain: MKKLLRLFFPLSLRVRFLLATAAVVLVLSLAYGMVALIGYSVSFDKTTFRLLRGESNLFYTLAKWENNKLHVELPENIDKQSPTMTLIYDENGQLLWAQRDVPWLMKMIQPDWLKSNGFHEIEADVNDTSLLLSGDHSIQQQLQEVREDDDDAEMTHSVAVNVYPATSRMPKLTIVVVDTIPVELKSSYMVWSWFIYVLSANLLLVIPLLWVAAWWSLRPIEALAKEVRELEEHNRELLNPATTRELTSLVRNLNRLLKSERERYDKYRTTLTDLTHSLKTPLXXLQXXLRSLRSEKMSVSDAEPVMLEQISRISQQIGYYLHRASMRGGTLLSRELHPVAPLLDNLTSALNKVYQRKGVNISLDISPEISFVGEQNDFVEVMGNVLDNACKYCLEFVEISARQTDEHLYIVVEDDGPGIPLSKREVIFDRGQRVDTLRPGQGVGLAVAREITEQYEGKIVAGESMLGGARMEVIFGRQHSAPKDE

This is one part of the list. Some results are limits rather than exact numbers.

The variants in this experiment derive from B1. The experiment can be described thus: enrichment ratio after two sorts for PhoP signalling (ratio (wild type AVST 3.29)); higher = more functional. The settings on record: with PhoP (E. coli).
As to RRPY, the enrichment ratio was at most 0.25.
For IGML, the enrichment ratio amounted to 3.65.
On to LLDD, for which the enrichment ratio is at most 0.25.
The same measure for HLNG: at most 0.25; for HWSM: at most 0.25.
Take GADS: the enrichment ratio is at most 0.25.
On to HDWY, for which the enrichment ratio was at most 0.25.
In the case of NCIM, the enrichment ratio is at most 0.25.
The result for QQFA reads at most 0.25; that for HNSK, at most 0.25; that for GLAV, 0.633.
The same measure for VNFC: at most 0.25; for GRKI: at most 0.25; for TPLA: at most 0.25.
With ACCP, the enrichment ratio was at most 0.25.
For the variant WQYA, the enrichment ratio is at most 0.25.
VFVK: the enrichment ratio is at most 0.25.
Regarding ERIG, the enrichment ratio is at most 0.25.
As for TTWY, the enrichment ratio is 14.
In the case of FSCV, the enrichment ratio is 9.84.
For the variant MSCK, the enrichment ratio is at most 0.25.
In the case of MFKP, the enrichment ratio was at most 0.25.
The result for WAPV reads at most 0.25; that for VMPK, at most 0.25.
The same measure for QSAN: at most 0.25.
As to RQNA, the enrichment ratio was at most 0.25.
As for EGCM, the enrichment ratio was at most 0.25.
For SHRV, the enrichment ratio was at most 0.25.
With TAMY, the enrichment ratio was 17.4.
The same measure for RIWH: at most 0.25; for HFDF: at most 0.25.
Turning to VCNN, the enrichment ratio is at most 0.25.
Take KIGP: the enrichment ratio is at most 0.25.
The result for FNCS reads at most 0.25; that for HLAH, at most 0.25.
QSQI: the enrichment ratio was at most 0.25.
Regarding FMYY, the enrichment ratio was at most 0.25.
Consider EIVS, for which the enrichment ratio is at most 0.25.
Take QNYY: the enrichment ratio is at most 0.25.
As for MNIW, the enrichment ratio is at most 0.25.
Turning to KMPC, the enrichment ratio is at most 0.25.
Regarding LYFM, the enrichment ratio was at most 0.25.
Consider GPCW, for which the enrichment ratio was at most 0.25.
Regarding NSSF, the enrichment ratio was at most 0.25.
In the case of INNF, the enrichment ratio is at most 0.25.
As for GRWS, the enrichment ratio is at most 0.25.
Turning to LGNK, the enrichment ratio is at most 0.25.
In the case of LWKE, the enrichment ratio was at most 0.25.
The same measure for LLWF: at most 0.25.
As for IQSK, the enrichment ratio is at most 0.25.
With NLQP, the enrichment ratio is at most 0.25.
WYWS: the enrichment ratio was at most 0.25.
For YTVE, the enrichment ratio is at most 0.25.
As to LKAW, the enrichment ratio was at most 0.25.
The result for FITF reads at most 0.25; that for SNHR, at most 0.25.
APQR: the enrichment ratio is at most 0.25.
Regarding TEES, the enrichment ratio is at most 0.25.
With IPKG, the enrichment ratio was at most 0.25.
As for NERM, the enrichment ratio is at most 0.25.
The result for QHIY reads at most 0.25; that for DFIC, at most 0.25; that for LGPP, at most 0.25.
For MPAC, the enrichment ratio was at most 0.25.
As to FLAS, the enrichment ratio is at most 0.25.
Turning to DYCF, the enrichment ratio is at most 0.25.
The result for MTSN reads at most 0.25; that for FRTA, at most 0.25; that for TCLK, 13.1.
For the variant GFVD, the enrichment ratio was at most 0.25.
Consider SEWR, for which the enrichment ratio is at most 0.25.
Take LMFF: the enrichment ratio was at most 0.25.
Turning to QDYP, the enrichment ratio is at most 0.25.
With DVAM, the enrichment ratio is at most 0.25.
VWNV: the enrichment ratio was at most 0.25.
As for RAWN, the enrichment ratio was at most 0.25.
On to SGWN, for which the enrichment ratio was at most 0.25.
Turning to DRYT, the enrichment ratio is at most 0.25.
For the variant PPEY, the enrichment ratio was at most 0.25.
In the case of ESTA, the enrichment ratio was at most 0.25.
As to MLVW, the enrichment ratio is at most 0.25.
For the variant CYSY, the enrichment ratio is at most 0.25.
The same measure for LHID: at most 0.25.
In the case of MPTT, the enrichment ratio is at most 0.25.
